Measurements taken from PubChem BioAssay AID504832 (National Center for Advancing Translational Sciences (NCATS), 2011).
About 18,000 (5.8%) of roughly 310,000 compounds were called active. Inconclusive means that the source gave no clear call. Such entries were picked first, then a sample of the others. Calls follow the shape of the dose curve; as a rule, active = well fitted inhibition curve with a large enough effect; inconclusive = small, poorly fitted or top-dose-only effect, or another doubt; inactive = no such curve, though single readings can be large or run the other way. Potencies of inconclusive entries are left out as doubtful fits.

Assay: Primary qHTS for delayed death inhibitors of the malarial parasite plastid, 48 hour incubation
Details: P. falciparum luciferase growth in erythrocytes; series mostly up to 28.7 µM; activity change, negative = inhibition: at the top concentration
Method in brief: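 Growth was read as firefly luciferase luminescence after a 48 h, 37 C, 5% CO2 exposure of compounds to reporter-bearing P. falciparum cultures (0.1% parasitemia, 2% hematocrit final) in Albumax-supplemented RPMI 1640.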
% is scaled to controls: 0 for no effect and ±100 for the full control effect; potency is read from the fitted curve at half-maximal effect; tags tell the direction and shape of the fitted curve.

| SMILES | activity change, negative = inhibition | Potency |
| --- | --- | --- |
| CC1=NN(c2ccccc2)C(=O)/C1=C/C=C/C=C/N(C)C | inactive: 17.3% | – |
| CC[C@@]1(c2ccccc2OC)ON(c2ccccc2C(F)(F)F)C1=O | – | active: 0.586 µM |
| CCOc1cc(CNCCc2ccccc2)ccc1OCC(=O)NC(C)(C)C | – | inconclusive [inhibitor, single point] |
| CCCCC(CC)COC(=O)c1ccccc1C(=O)OCC(CC)CCCC (stereo not drawn) | – | inconclusive [inhibitor, single point] |
| Cc1nc2cc(F)ccc2n1C1CCN(S(=O)(=O)c2ccccc2)CC1 | – | inconclusive [inhibitor, partial curve] |
| COc1cccc(CNC(=O)C(NS(=O)(=O)c2ccc3c(c2)CCN3C(C)=O)C(C)C)c1 (stereo not drawn) | inactive: -9.67% | – |
| COc1ccccc1N1CCN(C(CNC(=O)c2ccc3c(c2)OCO3)c2cccnc2)CC1 (stereo not drawn) | – | inconclusive [inhibitor, single point] |
| Cc1ccc(C)c(OCCCC(=O)Nc2nccs2)c1 | – | inconclusive [inhibitor, single point] |
| COc1ccc(OC)c(NC(=O)c2ccc3c(c2)C(=O)N(CC2CCCO2)C3=O)c1 (stereo not drawn) | inactive: 22.8% | – |
| COc1ccc(S(=O)(=O)Nc2cc3c4c(c2)CCC(=O)N4CCC3)cc1 | – | inconclusive [inhibitor, single point] |
| CCC(C)Oc1cccc(C(=O)Nc2ccccc2N2CCOCC2)c1 (stereo not drawn) | – | active: 10.4 µM |
| COC(=O)c1ccccc1N(C)S(=O)(=O)c1cc2c(cc1C)OCC(=O)N2 | inactive: -25.2% | – |
| O=C(NCC(=O)N1CCc2ccccc2C1)c1ccc(Cl)cc1Cl | inactive: 22.9% | – |
| COc1ccc(/C=C2\SC(=O)N(CC(=O)NNC(=O)c3ccccc3O)C2=O)cc1OC | inactive: 0.142% | – |
| CC(C)(CO)CNC(=O)CCc1nnc(C2(c3ccc(Cl)cc3)CCC2)o1 | inactive: -5.94% | – |
| COc1ccc(C(CNC(=O)c2cccc(S(=O)(=O)Nc3ccc(C)cc3)c2)N2CCCCC2)cc1 (stereo not drawn) | – | active: 8.28 µM |
| Cc1ccnc(NC(=O)CCC(=O)N(CC(=O)NC2CCCCC2)CC2CCCO2)c1 (stereo not drawn) | inactive: -14% | – |
| O=S(=O)(Nc1ccc(N=Nc2ccc(O)c3ccccc23)cc1)c1ccccc1 | – | active: 2.33 µM |
| O=C(COc1cccc2ccccc12)N/N=C/c1ccncc1 | inactive: -34.4% | – |
| Cc1cccc2cc(COC(=O)COc3ccccc3)c(=O)[nH]c12 | – | inconclusive [inhibitor, single point] |
| COc1ccc(S(=O)(=O)NCC(=O)NCc2cc(=O)n(C)c(=O)n2C)cc1C | – | inconclusive [inhibitor, full curve, poor fit] |
| N#Cc1nc(Cc2cccc3ccccc23)oc1N1CCCCC1 | – | inconclusive [inhibitor, single point] |
| CC(=O)Oc1ccc(OC(C)=O)c(SCCCCCCl)c1 | – | inconclusive [inhibitor, single point] |
| COc1ccc(S(=O)(=O)N(C)C)cc1NCC(=O)Nc1ccc(Br)cc1F | – | inconclusive [inhibitor, single point] |
| O=C(NC1CCCCC1)c1c(O)nc2sccn2c1=O | – | active: 10.4 µM |

| SMILES | activity change, negative = inhibition | Potency |
| --- | --- | --- |
| CC1C/C(=C/c2ccncc2)C(=O)/C(=C/c2ccncc2)C1 (stereo not drawn) | – | inconclusive [inhibitor, partial curve] |
| COc1cc(/C=C(/C#N)c2ccc(F)cc2)ccc1Oc1ccc([N+](=O)[O-])cn1 | – | active: 4.65 µM |
| Cc1cc(N2CCCC2)ccc1/C=C1/C(=O)N(C)C(=S)N1C | inactive: 0.25% | – |
| O=S1(=O)CCC(NC(=S)SCc2ccccc2Br)C1 (stereo not drawn) | – | inconclusive [inhibitor, single point] |
| CN1Cc2ccccc2N(CC(=O)NCc2ccccc2)C1=O | – | inconclusive [inhibitor, partial curve, poor fit] |
| Oc1ccc(/C=N/N2CCN(c3ccccn3)CC2)cc1 | inactive: 64% | – |
| Cc1ccc(S(=O)(=O)N(Cc2cccc(Cl)c2)C(=O)N2CCN(C)CC2)cc1 | inactive: -7.07% | – |
| NC(=O)COc1c(-c2ccc(Br)o2)oc2ccccc2c1=O | inactive: 4.37% | – |
| Cc1ccc(C)c(S(=O)(=O)N2CCN(C(=O)CCCc3c[nH]c4ccccc34)CC2)c1 | – | active: 14.7 µM |
| C=CCn1c(COc2ccc(Cl)cc2)nnc1SCC(=O)N1CC(=O)Nc2ccccc21 | – | inconclusive [inhibitor, single point] |
| Cn1[nH]c(CSc2ccc(Cl)cc2)cc1=O | inactive: 449% | – |
| Oc1csc(Cc2nc(-c3ccccc3F)cs2)n1 | inactive: 122% | – |
| O=C(NC(NC(=S)Nc1c(Cl)cccc1Cl)C(Cl)(Cl)Cl)OCc1ccccc1 (stereo not drawn) | – | inconclusive [inhibitor, single point] |
| CCCc1cc(=O)oc2c3c(cc(OCC(=O)NCc4ccccn4)c12)OC(C)(C)CC3 | – | active: 11.7 µM |
| c1ccc2c(N3CCCCC3)nc(N3CCCC3)nc2c1 | – | active: 13.1 µM |
| Cc1c(C)c2c(c(C)c1O)CCC(C)(COc1ccc(CC3SC(=O)NC3=O)cc1)O2 (stereo not drawn) | – | inconclusive [inhibitor, partial curve] |
| O=C(Nc1nccs1)c1ccc(-c2cccc([N+](=O)[O-])c2)o1 | – | inconclusive [inhibitor, single point] |
| Cc1ccc(-n2nc(C)c3c2NC2=C(C(=O)CC(C)(C)C2)C3c2ccccc2OCC(=O)O)cc1 (stereo not drawn) | – | inconclusive [inhibitor, partial curve, poor fit] |
| Clc1ccc(-c2nnsc2SCc2ccccc2)cc1 | inactive: -12.2% | – |
| CC1CCC(NC(=O)CCS(=O)(=O)c2ccc3c(c2)NC(=O)C(C)S3)CC1 (stereo not drawn) | inactive: 10.3% | – |
| O=C(COc1ccc(S(=O)(=O)N2CCCCC2)cc1)NCc1ccncc1 | inactive: -12.4% | – |
| Cc1cc(=O)[nH]c(N/N=C2/CCCC/C2=C\c2ccccc2)n1 | – | inconclusive [inhibitor, single point] |
| CC(=O)Nc1ccc(N(C(=O)c2ccco2)C(C(=O)NC2CCCCC2)c2ccccc2)cc1 (stereo not drawn) | – | inconclusive [inhibitor, partial curve, poor fit] |
| CCn1cc(C(=O)NC(C)C23CC4CC(CC(C4)C2)C3)cn1 (stereo not drawn) | – | inconclusive [inhibitor, partial curve] |
| Cc1cc(-n2c(SCC(=O)Nc3ccc(F)c(F)c3)nc3n[nH]c(C)c3c2=N)ccc1Cl | – | inconclusive [inhibitor, full curve, poor fit] |

| SMILES | activity change, negative = inhibition | Potency |
| --- | --- | --- |
| O=C(O)Cn1cc(/C=C2\C(=O)NC(=O)N(c3ccc(Cl)cc3)C2=O)c2ccccc21 | – | inconclusive [inhibitor, single point] |
| Cc1ccc(NS(=O)(=O)c2ccc(N3CCN(c4ccc(O)cc4)CC3)c([N+](=O)[O-])c2)c(C)c1 | – | inconclusive [inhibitor, single point] |
| Cc1ccccc1NC(=S)/C(=C(\[O-])c1cc(C)n(Cc2ccccc2Cl)c1C)[n+]1ccccc1 | – | inconclusive [inhibitor, single point] |
| CC(OC(=O)c1ccco1)C(=O)Nc1ccc(C(F)(F)F)cc1 (stereo not drawn) | inactive: -1.1% | – |
| Nc1cccc(/C=C/C(=O)O)c1 | inactive: 38.2% | – |
| CCCn1c(=S)[nH]c2cc(C(=O)N3CCN(C4CCCCC4)CC3)ccc2c1=O | inactive: 0.38% | – |
| CCOC(=O)C1CCCN(Cc2cc(=O)oc3cc(C)c(C)cc23)C1 (stereo not drawn) | inactive: -26.5% | – |
| Cc1sc(NC(=O)c2ccco2)nc1-c1ccccc1 | inactive: 28.3% | – |
| CCc1nonc1NC(=O)c1oc2ccccc2c1C | – | active: 9.28 µM |
| CN(CC1COc2ccccc2O1)c1nc(-c2cccnc2)nc2ccccc12 (stereo not drawn) | – | inconclusive [inhibitor, partial curve] |
| COc1ccccc1CNC(=O)C1CCN(S(=O)(=O)c2ccc3c(c2)CC(C)N3C(C)=O)CC1 (stereo not drawn) | – | inconclusive [inhibitor, partial curve, poor fit] |
| Cc1ccc(S(=O)(=O)N2CCOCC2)cc1C(=O)NC1CCCC(C)C1C (stereo not drawn) | – | inconclusive [inhibitor, single point] |
| Cc1occc1-c1nnc(SCC(=O)NC(C)(C)C)n1C(C)c1ccccc1 (stereo not drawn) | – | inconclusive [inhibitor, partial curve, poor fit] |
| COc1ccc(CCC(=O)Nc2ccc(OC)c(S(=O)(=O)N3CCCCC3)c2)cc1OC | – | inconclusive [inhibitor, single point] |
| CCC(C)Sc1nc2c(c(=O)[nH]c(=O)n2C)n1CCc1ccccc1 (stereo not drawn) | – | inconclusive [inhibitor, single point] |
| COC(=O)C1=C(N)N(c2ccccc2C(F)(F)F)C2=C(C(=O)CCC2)C1c1ccc2c(c1)OCO2 (stereo not drawn) | – | active: 3.7 µM |
| O=C(Nc1cccc(Cl)c1)Nc1cnccn1 | – | inconclusive [inhibitor, full curve, poor fit] |
| c1cnc2ccc(C(c3nnnn3C3CCCCC3)N3CCN4CCCC4C3)cc2c1 (stereo not drawn) | – | inconclusive [inhibitor, partial curve, poor fit] |
| CC1CC1C(=O)N1CCN(S(=O)(=O)c2cccc(F)c2)CC1 (stereo not drawn) | – | inconclusive [inhibitor, single point] |
| COc1cccc(N=c2oc3c(C)ncc(CO)c3cc2C(N)=O)c1 | – | inconclusive [inhibitor, full curve, poor fit] |
| COCCn1c(SCC(=O)NC2CCCCC2)nc2c(c1=O)SCC2 | – | inconclusive [inhibitor, single point] |
| CSc1ccc(CN(C)C(=O)c2cc3ccccc3o2)cc1 | inactive: 34.7% | – |
| CCOP(=O)(OCC)C(NC(=O)Cc1ccccc1)C(Cl)(Cl)Cl (stereo not drawn) | inactive: -25.8% | – |
